Test results: article PMC8473724
No constants are given. Whether binding was seen depends on the method and setting. In cells and extracts the contact can be indirect. Some results given as binding are weak or reduced against the parent protein; the word gives no strength. Tags and fused reporters may be left off the sequences shown.

Protein sequences, listed by entry. Tags and fused reporters are not part of them. Lines headed by an entry give the natural chain unless they say otherwise; changes in a name come on top. Chains listed by the source or under a name are the forms on record and can include a tag or linker. Residues count along the entry.
Myc-tagged CD22 WT (P20273, residues 20-847): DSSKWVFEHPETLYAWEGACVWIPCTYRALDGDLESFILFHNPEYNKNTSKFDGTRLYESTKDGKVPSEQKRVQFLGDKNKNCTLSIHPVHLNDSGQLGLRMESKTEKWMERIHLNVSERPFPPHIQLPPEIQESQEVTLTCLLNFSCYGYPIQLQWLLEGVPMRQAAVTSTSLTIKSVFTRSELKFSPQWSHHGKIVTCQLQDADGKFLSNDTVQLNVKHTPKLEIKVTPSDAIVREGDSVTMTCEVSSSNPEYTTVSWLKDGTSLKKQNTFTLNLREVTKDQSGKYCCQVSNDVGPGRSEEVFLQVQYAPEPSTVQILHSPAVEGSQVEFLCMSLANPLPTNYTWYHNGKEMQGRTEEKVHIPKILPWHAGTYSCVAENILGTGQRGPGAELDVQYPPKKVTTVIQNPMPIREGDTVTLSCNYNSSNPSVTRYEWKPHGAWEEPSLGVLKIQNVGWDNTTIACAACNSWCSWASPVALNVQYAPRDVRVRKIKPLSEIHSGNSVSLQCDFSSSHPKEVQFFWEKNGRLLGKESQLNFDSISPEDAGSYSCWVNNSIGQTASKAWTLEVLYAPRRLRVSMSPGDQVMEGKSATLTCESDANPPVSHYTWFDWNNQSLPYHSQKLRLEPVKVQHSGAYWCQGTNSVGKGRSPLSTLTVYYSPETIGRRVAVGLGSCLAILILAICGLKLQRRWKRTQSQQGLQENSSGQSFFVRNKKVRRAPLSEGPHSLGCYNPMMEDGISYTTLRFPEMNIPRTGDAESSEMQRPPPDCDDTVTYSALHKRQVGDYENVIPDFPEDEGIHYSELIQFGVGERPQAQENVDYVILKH
Myc-tagged CD22 Y842F (P20273, form named): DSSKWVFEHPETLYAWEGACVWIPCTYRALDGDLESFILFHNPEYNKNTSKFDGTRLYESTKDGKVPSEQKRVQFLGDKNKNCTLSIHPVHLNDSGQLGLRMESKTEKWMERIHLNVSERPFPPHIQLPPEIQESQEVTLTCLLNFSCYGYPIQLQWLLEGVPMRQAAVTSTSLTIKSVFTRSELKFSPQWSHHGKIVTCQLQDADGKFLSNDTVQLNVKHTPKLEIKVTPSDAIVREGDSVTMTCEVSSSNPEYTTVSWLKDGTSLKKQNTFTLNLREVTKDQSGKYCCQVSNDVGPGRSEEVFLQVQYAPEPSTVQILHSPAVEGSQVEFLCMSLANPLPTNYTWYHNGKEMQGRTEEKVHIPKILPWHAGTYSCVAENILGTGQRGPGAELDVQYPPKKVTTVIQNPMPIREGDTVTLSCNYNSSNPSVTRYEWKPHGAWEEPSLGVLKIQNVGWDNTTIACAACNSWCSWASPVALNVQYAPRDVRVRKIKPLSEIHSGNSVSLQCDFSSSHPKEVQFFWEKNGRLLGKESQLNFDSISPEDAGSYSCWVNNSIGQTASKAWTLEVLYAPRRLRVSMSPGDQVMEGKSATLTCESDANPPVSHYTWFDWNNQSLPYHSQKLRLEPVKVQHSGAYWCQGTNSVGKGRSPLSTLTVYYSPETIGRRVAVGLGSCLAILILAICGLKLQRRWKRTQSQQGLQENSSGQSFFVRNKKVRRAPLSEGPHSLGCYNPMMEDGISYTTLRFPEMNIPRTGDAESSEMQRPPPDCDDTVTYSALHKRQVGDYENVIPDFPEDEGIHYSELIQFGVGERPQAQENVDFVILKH
Myc-tagged CD22-Y822/842F double mutant (P20273, form named): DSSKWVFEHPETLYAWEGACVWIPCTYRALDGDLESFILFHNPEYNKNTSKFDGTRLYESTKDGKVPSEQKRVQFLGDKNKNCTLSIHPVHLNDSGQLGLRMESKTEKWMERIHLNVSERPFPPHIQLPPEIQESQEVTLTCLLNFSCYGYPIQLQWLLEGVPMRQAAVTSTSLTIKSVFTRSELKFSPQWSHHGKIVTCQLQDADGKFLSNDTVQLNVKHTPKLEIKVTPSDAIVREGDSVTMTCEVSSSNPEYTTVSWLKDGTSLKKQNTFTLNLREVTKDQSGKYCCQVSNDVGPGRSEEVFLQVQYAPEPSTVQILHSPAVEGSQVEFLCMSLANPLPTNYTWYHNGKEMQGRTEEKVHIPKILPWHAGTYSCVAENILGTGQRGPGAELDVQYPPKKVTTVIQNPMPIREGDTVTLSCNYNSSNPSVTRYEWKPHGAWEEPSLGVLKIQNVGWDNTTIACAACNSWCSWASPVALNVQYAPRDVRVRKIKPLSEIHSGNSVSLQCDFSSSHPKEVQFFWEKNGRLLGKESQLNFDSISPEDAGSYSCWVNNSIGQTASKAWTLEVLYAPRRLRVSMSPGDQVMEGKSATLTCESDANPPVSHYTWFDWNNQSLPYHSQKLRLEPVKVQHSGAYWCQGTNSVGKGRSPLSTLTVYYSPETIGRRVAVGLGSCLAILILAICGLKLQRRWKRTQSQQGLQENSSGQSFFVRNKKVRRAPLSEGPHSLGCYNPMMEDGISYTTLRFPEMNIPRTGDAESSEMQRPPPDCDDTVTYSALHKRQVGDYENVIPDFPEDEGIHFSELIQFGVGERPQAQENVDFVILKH
Myc-tagged CD22 Y762F (P20273, form named): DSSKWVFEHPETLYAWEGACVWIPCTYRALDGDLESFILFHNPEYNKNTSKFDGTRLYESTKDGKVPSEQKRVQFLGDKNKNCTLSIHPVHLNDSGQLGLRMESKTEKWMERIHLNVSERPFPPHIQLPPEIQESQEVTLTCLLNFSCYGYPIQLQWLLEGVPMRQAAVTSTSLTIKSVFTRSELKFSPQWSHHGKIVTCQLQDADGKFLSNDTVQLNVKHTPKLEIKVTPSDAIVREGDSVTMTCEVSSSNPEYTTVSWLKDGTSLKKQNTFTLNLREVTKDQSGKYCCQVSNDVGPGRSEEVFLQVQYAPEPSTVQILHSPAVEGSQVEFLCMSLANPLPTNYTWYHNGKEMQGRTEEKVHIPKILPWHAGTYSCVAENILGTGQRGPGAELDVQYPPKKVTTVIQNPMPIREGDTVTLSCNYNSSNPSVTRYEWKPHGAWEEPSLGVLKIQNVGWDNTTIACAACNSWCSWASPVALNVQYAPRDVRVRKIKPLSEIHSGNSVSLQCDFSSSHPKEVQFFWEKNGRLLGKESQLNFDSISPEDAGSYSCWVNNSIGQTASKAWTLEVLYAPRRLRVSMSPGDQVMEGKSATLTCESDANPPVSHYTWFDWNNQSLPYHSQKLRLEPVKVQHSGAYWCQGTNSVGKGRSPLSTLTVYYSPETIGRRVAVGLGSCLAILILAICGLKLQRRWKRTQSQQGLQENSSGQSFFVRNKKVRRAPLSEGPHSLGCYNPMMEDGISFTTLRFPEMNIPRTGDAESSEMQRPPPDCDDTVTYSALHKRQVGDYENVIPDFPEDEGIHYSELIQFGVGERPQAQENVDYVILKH
Myc-tagged CD22 Y762/822/842F triple mutant (P20273, form named): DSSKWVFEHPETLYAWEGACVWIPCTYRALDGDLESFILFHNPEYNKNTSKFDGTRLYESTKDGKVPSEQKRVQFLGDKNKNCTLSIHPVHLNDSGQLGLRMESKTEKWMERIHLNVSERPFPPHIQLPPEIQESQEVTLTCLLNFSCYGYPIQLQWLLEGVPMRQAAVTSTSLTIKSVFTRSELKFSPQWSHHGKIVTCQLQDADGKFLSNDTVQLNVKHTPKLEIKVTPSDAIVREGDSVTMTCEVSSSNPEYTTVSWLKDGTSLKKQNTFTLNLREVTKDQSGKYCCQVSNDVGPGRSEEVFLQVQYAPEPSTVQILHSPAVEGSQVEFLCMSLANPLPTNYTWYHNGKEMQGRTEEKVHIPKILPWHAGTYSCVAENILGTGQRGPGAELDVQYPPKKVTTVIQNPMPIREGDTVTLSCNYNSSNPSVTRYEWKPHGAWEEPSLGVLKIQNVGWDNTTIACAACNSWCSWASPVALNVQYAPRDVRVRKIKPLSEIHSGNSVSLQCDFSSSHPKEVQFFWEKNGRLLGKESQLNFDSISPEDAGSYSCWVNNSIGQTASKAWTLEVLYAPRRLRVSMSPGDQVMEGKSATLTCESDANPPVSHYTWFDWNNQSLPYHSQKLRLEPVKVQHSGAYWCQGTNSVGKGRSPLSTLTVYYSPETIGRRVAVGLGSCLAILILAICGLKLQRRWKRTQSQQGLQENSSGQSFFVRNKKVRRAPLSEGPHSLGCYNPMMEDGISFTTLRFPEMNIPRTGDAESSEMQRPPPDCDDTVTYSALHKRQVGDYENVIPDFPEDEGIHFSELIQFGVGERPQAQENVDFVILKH
Myc-tagged CD22 Y822F (P20273, form named): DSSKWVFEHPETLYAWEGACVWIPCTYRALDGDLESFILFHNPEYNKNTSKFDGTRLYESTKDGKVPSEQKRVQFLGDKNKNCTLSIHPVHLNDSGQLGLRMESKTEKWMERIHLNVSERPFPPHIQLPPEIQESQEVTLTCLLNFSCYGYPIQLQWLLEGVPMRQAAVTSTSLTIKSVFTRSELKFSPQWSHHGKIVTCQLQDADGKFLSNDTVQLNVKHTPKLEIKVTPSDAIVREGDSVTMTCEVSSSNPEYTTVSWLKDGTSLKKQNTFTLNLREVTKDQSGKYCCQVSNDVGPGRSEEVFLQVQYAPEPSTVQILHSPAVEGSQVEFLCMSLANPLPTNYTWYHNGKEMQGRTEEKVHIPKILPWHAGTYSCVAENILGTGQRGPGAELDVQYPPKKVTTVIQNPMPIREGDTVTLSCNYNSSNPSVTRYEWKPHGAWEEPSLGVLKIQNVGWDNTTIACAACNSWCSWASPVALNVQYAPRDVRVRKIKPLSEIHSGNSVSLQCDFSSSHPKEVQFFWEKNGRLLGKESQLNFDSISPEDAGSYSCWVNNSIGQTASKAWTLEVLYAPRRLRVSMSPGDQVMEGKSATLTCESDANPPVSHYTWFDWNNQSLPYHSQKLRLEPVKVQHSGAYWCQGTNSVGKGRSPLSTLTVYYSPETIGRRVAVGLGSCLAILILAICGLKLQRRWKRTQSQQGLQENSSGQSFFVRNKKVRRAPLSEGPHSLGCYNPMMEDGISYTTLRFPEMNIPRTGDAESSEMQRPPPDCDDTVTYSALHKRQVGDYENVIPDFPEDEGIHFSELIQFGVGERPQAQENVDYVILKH
Myc-tagged CD22 6Y-to-F mutant (P20273, form named): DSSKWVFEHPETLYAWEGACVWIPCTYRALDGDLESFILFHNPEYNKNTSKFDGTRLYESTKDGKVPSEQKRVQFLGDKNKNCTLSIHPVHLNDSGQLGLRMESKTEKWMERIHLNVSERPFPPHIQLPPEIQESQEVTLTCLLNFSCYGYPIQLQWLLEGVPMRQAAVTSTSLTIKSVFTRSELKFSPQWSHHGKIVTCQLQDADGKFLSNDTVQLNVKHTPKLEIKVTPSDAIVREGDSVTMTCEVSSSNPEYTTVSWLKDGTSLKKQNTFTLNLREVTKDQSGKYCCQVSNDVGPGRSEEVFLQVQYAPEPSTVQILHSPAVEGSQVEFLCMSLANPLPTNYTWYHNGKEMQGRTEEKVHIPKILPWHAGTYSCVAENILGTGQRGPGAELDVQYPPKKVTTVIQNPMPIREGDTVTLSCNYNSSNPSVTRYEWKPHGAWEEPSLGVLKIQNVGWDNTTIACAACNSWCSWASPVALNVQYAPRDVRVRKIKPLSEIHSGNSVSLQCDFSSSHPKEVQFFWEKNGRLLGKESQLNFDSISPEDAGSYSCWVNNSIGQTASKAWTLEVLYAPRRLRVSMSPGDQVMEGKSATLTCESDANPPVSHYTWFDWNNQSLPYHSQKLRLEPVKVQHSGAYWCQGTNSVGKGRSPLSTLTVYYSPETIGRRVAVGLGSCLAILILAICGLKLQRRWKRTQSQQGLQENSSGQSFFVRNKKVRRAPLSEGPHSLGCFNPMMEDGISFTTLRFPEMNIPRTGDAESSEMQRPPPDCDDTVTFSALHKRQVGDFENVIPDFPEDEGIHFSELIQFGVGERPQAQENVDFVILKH

How the values were obtained:
Test in all cases: co-IP; anti-Myc co-IP of C-terminally Myc-tagged CD22 WT or Y-to-F mutants from PTP1B KO Ramos cells with induced FLAG-PTP1B-D181A-Y46F; immunoblot with anti-FLAG (n = 3) and anti-GRB2 (n = 1)
[1] = molecular target: Myc-tagged CD22 Y842F (human) (UniProt P20273)
[2] = molecular target: Myc-tagged CD22-Y822/842F double mutant (human) (UniProt P20273)
[3] = molecular target: Myc-tagged CD22 Y762F (human) (UniProt P20273)
[4] = molecular target: Myc-tagged CD22 Y762/822/842F triple mutant (human) (UniProt P20273)
[5] = molecular target: Myc-tagged CD22 WT (human) (UniProt P20273)
[6] = molecular target: Myc-tagged CD22 Y822F (human) (UniProt P20273)
[7] = molecular target: Myc-tagged CD22 6Y-to-F mutant (human) (UniProt P20273)

binding [1]: binds | binding [2]: binds | binding [3]: binds | binding [4]: binds | binding [5]: binds | binding [6]: binds | binding [7]: no binding
B1: FLAG-PTP1B D181A-Y46F substrate trapping mutant (full-length) (enzyme, UniProt P18031 1-435)
chain: MEMEKEFEQIDKSGSWAAIYQDIRHEASDFPCRVAKLPKNKNRNRFRDVSPFDHSRIKLHQEDNDYINASLIKMEEAQRSYILTQGPLPNTCGHFWEMVWEQKSRGVVMLNRVMEKGSLKCAQYWPQKEEKEMIFEDTNLKLTLISEDIKSYYTVRQLELENLTTQETREILHFHYTTWPAFGVPESPASFLNFLFKVRESGSLSPEHGPVVVHCSAGIGRSGTFCLADTCLLLMDKRKDPSSVDIKKVLLEMRKFRMGLIQTADQLRFSYLAVIEGAKFIMGDSSVQDQWKELSHEDLEPPPEHIPPPPRPPKRILEPHNGKCREFFPNHQWVKEETQEDKDCPIKEEKGSPLNAAPYGIESMSQDTEVRSRVVGGSLRGAQAASPAKGEPSLPEKDEDHALSYWKPFLVNMCVATVLTAGAYLCYRFLFNSNT
